Measured values as given in the supplement of paper PMC12217912.
Some of the results follow. The full chains were built here from the parent and the listed change. Values near 0.05 are background.

B1: TEV protease; numbered along this chain (parent)
chain: MGESLFKGPRDYNPISSSICHLTNESDGHTTSLYGIGFGPFIITNKHLFRRNNGTLVVQSLHGVFKVKDTTTLQQHLVDGRDMIIIRMPKDFPPFPQKLKFREPQREERICLVTTNFQTKSMSSMVSDTSCTFPSGDGIFWKHWIQTKDGQCGSPLVSTRDGFIVGIHSASNFTNTNNYFTSVPKNFMELLTNQEAQQWVSGWRLNADSVLWGGHKVFMVKPEEPFQPVKEATQL

Variants of: B1
Assay: raw area under fraction-flipped curve 0-4 h after induction (AUC4h, not background-subtracted), DNA-recorder readout of cleavage of the substrate (dimensionless); higher = more cleavage of the substrate by the protease variant
Settings: temperature: 34 °C; time window: 0-4 h after rhamnose induction
Experimental: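 In vivo DNA recorder in E. coli TOP10(DE3) ΔrhaA at 34 °C. Each TEVp single-site mutant (parent TEVp 0) is paired with a single-site variant of the 7-mer TEVs (canonical ENLYFQ|S). The substrate sits between flexible linkers in a Bxb1-sfGFP-TEVs-SsrA fusion, so cleavage stabilises Bxb1 and speeds flipping of a recombination array, read by NGS. The value is the raw area under the fraction-flipped curve over 0-4 h after rhamnose induction (AUC4h), with ≥20 reads per time point. It is not background-subtracted; inactive controls average about 0.047.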
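Further: Bxb1 expression induced with 0.2% (w/v) L-rhamnose at OD600 near 0.5, cultures sampled hourly, flipped fraction per protease–substrate barcode pair counted by paired-end Illumina sequencing.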

Variant | area with substrate ENLYFQA | area with substrate ENLYFQC | area with substrate ENLYFQF | area with substrate ENLYFQG | area with substrate ENLYFQH | area with substrate ENLYFQK | area with substrate ENLYFQL | area with substrate ENLYFQN | area with substrate ENLYFQP | area with substrate ENLYFQR | area with substrate ENLYFQS | area with substrate ENLYFQT | area with substrate ENLYFQW | area with substrate ENLYFQY | area with substrate ENLYFQD | area with substrate ENLYFQI | area with substrate ENLYFQM | area with substrate ENLYFQQ | area with substrate ENLYFQV | area with substrate ENLYFQE
MGESLFKGPRDYNPISSSICHLTNESDGHTTSLYGIGFGPFIITNKHLFRRNYGTLVVQSLHGVFKVKDTTTLQQHLVDGRDMIIIRMPKDFPPFPQKLKFREPQREERICLVTTNFQTKSMSSMVSDTSCTFPSGDGIFWKHWIQTKDGQCGSPLVSTRDGFIVGIHSASNFTNTNNYFTSVPKNFMELLTNQEAQQWVSGWRLNADSVLWGGHKVFMVKPEEPFQPVKEATQL [N53Y] | 0.0745 | 0.102 | 0.0538 | 0.0739 | 0.0708 | 0.0561 | 0.0592 | 0.0624 | 0.0555 | 0.066 | 0.0758 | 0.0626 | 0.0653 | 0.0568 | – | – | – | – | – | –
MGESLFKGPRDYNPISSSICHLTNESDGHTTSLYGIGFGPFIITNKHLFRRNNGTLVVQSLHGVFKVKDTTTLQQHLVDGRDMIIIRMPKDFPPFPQKLKFREPQREERICLVTTNFQTKSMSSMVSDTSCTFPSGDGIFWKHWIQTKDGQCGSPLVSTRDGFIVGIHSASNFTNTNNYFTSVPKNFMELLTNQEAQQWVSGWRLNADSVLWGGHKYFMVKPEEPFQPVKEATQL [V217Y] | 0.0591 | 0.0639 | 0.0632 | 0.0557 | – | 0.0568 | – | – | – | 0.0604 | 0.0634 | 0.0584 | 0.0494 | 0.0623 | 0.0575 | 0.0585 | 0.0539 | – | – | –
MGESLFKGPRDYNPISSSICHLTNESDGHTTSLYGIGFGPFIITNKHLFRRNNGTLVVQSLHGVFKVKDTTTLQQHLVDGRDMIIIRMPKDFPPFPQKLKFREPQREERICLVTTNFQTKSMSNMVSDTSCTFPSGDGIFWKHWIQTKDGQCGSPLVSTRDGFIVGIHSASNFTNTNNYFTSVPKNFMELLTNQEAQQWVSGWRLNADSVLWGGHKVFMVKPEEPFQPVKEATQL [S124N] | 0.0992 | 0.112 | 0.0798 | 0.123 | 0.067 | – | 0.055 | – | 0.061 | 0.0614 | 0.0926 | 0.0418 | 0.0602 | – | – | 0.0699 | 0.0825 | – | – | –
MGESLFKGPRDYNPISSSICHLTNESDGHTTSLYGIGFGPFIITNKHLFRRNNGTLVVQSLHGVFKVKDTTTLQQHLVDGRDMIIIRMPKDFPPFPQKLKFREPQREERICLVTTNFQTKSMSSMVSDTSCTFPSGDGIFWKHWIQTKDGQCGSPLVSTRDGFIVGIHSASNFTNTNNYFTSVPKNFMELLTNQEAQQWVSGWRLNADSVLWGGHKSFMVKPEEPFQPVKEATQL [V217S] | 0.0597 | 0.0693 | – | – | 0.0631 | 0.0586 | – | 0.0601 | – | 0.0603 | 0.0683 | – | 0.059 | 0.0663 | 0.0535 | – | 0.0719 | – | – | –
MGESLFKGPRDYNPISSSICHLTNESDGHTTSLYGIGFGPFIITNKHLFRRNNGTLVVQSLHGVFKVKDTTTLQQHLVDGRDMIIIRMPKDFPPFPQKLKFREPQREERICLVTTNFQTKSMSSMVSDTSCTFPSGDGIFWKHWIQTKDGQCGSPLVSTLDGFIVGIHSASNFTNTNNYFTSVPKNFMELLTNQEAQQWVSGWRLNADSVLWGGHKVFMVKPEEPFQPVKEATQL [R160L] | 0.084 | – | – | – | – | – | – | 0.0709 | – | – | 0.1 | – | – | – | – | – | – | 0.0918 | 0.0564 | –
MGESLFKGPRDYNPISSSICHLTNESDGHTTSLYGIGFGPFIITNKHLFGRNNGTLVVQSLHGVFKVKDTTTLQQHLVDGRDMIIIRMPKDFPPFPQKLKFREPQREERICLVTTNFQTKSMSSMVSDTSCTFPSGDGIFWKHWIQTKDGQCGSPLVSTRDGFIVGIHSASNFTNTNNYFTSVPKNFMELLTNQEAQQWVSGWRLNADSVLWGGHKVFMVKPEEPFQPVKEATQL [R50G] | 0.0856 | 0.103 | – | 0.107 | – | 0.0791 | 0.0628 | 0.0807 | – | 0.0994 | 0.107 | 0.0609 | 0.0655 | 0.0697 | – | 0.0593 | 0.0861 | – | 0.0531 | –
MLESLFKGPRDYNPISSSICHLTNESDGHTTSLYGIGFGPFIITNKHLFRRNNGTLVVQSLHGVFKVKDTTTLQQHLVDGRDMIIIRMPKDFPPFPQKLKFREPQREERICLVTTNFQTKSMSSMVSDTSCTFPSGDGIFWKHWIQTKDGQCGSPLVSTRDGFIVGIHSASNFTNTNNYFTSVPKNFMELLTNQEAQQWVSGWRLNADSVLWGGHKVFMVKPEEPFQPVKEATQL [G2L] | 0.112 | – | – | – | 0.0993 | 0.0535 | 0.0588 | – | – | 0.0576 | 0.13 | – | 0.0678 | – | – | – | 0.149 | – | – | 0.0281
MGESLFKGPRDYNPISSSICHLTNESDGHTTSLYGIGFGPFIITNKHLFRRNNGTLVVQSLHGVFKVKDTTTLQQHLVDGRDMIIIRMPKDFPPFPQKLKFREPQREERICLVTTNFQTKSMSSMVSDTKCTFPSGDGIFWKHWIQTKDGQCGSPLVSTRDGFIVGIHSASNFTNTNNYFTSVPKNFMELLTNQEAQQWVSGWRLNADSVLWGGHKVFMVKPEEPFQPVKEATQL [S130K] | 0.0683 | 0.0934 | – | 0.0513 | 0.0796 | 0.0521 | 0.0626 | 0.0661 | 0.054 | 0.0621 | 0.0907 | 0.0497 | 0.0416 | 0.0604 | 0.0579 | 0.0346 | 0.0759 | – | 0.0528 | –
MGESLFKGPRDYNPISSSICHLTNESDGHTTSLYGIGFGPFIITNKHLFRRNNGTLVVQSLHGVFKVKDTTTLQQHLVDGRDMIIIRMPKDFPPFPQKLKFREPQREERICLVTTNFQTKSMSSMVSDTSCTFPSGDGIFWKHWIQTKDGQCGSPLVSTRDGFIVGIHSASNCTNTNNYFTSVPKNFMELLTNQEAQQWVSGWRLNADSVLWGGHKVFMVKPEEPFQPVKEATQL [F173C] | 0.137 | 0.116 | 0.0588 | 0.0306 | – | – | – | 0.0572 | – | 0.0581 | 0.089 | 0.0614 | 0.0613 | 0.0499 | – | 0.059 | 0.0672 | – | – | –
